Sequences and labels used below:
T1: UNK ZnF1-3 (human, UniProt Q9C0B0 31-174)
T1 sequence: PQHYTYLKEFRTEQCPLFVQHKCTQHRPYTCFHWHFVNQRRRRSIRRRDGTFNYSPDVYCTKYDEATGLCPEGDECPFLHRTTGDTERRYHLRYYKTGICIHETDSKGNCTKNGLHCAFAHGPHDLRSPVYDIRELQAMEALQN

B1: 26418582_26418702_1127_3pUTR_ENSMUSG00000024188_ENSMUST00000114976|mouse|control|control (ssRNA)
RNA: GGGAGUUCUACAGUCCGACGAUCGCCAGCCUCCUUCUCCUCCGACCUCCGCGAUGCAGUCUUGCCAUUGGAAUUCUCCAGCCUCCAGUCAGUGGGCCCUCGUUCAUUCCGCCCGUACUCCCAGGAUUCCUCUCUCAAUGAGCGCAACAGAGGAUUGAGCAUCA
B2: chr19:16212804:16212805:+_ENSG00000167460_ENST00000300933|hu_mus|hu_hu_hu_mus_False|18_58 (ssRNA)
RNA: GGGAGUUCUACAGUCCGACGAUCAACAAUUCUGGAGUGAAGGAAAGAUGUAACAUGGAACAGCAUUAAAGCUCAGUAUUACUAUAUAUGGGCAACAAUGAUCACCCCAGCAUUCUCCUACGUUGACCUUAAAGACAAUCUGUUCAACAGAGGAUUGAGCAUCA
B3: chr5:73476710:73476711:-_ENSMUSG00000070733_ENSMUST00000101127|mus_hu|FALSE|FALSE (ssRNA)
RNA: GGGAGUUCUACAGUCCGACGAUCCAGAAUAGAGAUGUGGUAGAGGAGACAGCUGGCUGAGUACUCCAUCUGUUCUCUGAACCUCCAAUUUGUGAGCAUAGCGAAACAUCUUCGGUUCCAGAAUCUGUAAAAGUUGCAUAGCAACAACAGAGGAUUGAGCAUCA
B4: chr18:42481571:42481572:+_ENSMUSG00000024491_ENSMUST00000091920|mus_mus|motif|central (ssRNA)
RNA: GGGAGUUCUACAGUCCGACGAUCAAGGUAUUGGAUGAGUGCUGCUUCUGGAUCACCCUUAAAAGCAACCUGGAUAUUAACGGUGGUUCCAAAUUUGCUGAAGUGUUCGUUGAGCUUGGUAAUGUUGUUCAAUUCCUGGGGGAUCAACAGAGGAUUGAGCAUCA
B5: chr7:97836282:97836283:+_ENSG00000164715_ENST00000297293|hu_hu|FALSE|FALSE (ssRNA)
RNA: GGGAGUUCUACAGUCCGACGAUCAGGGAGGGAGGUGUGAGGUCGCCCAUGACCACAGGGGCUCGUGACGAUGUGACGAAGCUACACUGGGAGCACUCGGGCCCUUUCAAAGCCAGAAGAGAACCUGGGGCUUAAUGCAGAACGCAACAGAGGAUUGAGCAUCA
B6: chr2:165877891:165877892:+_ENSMUSG00000027678_ENSMUST00000088095|mus_hu|FALSE|FALSE (ssRNA)
RNA: GGGAGUUCUACAGUCCGACGAUCAAAUCUCUGAAUACACCUUCGGAUUAUAUCUUCAAAGCCAGGCCUCAUGGAGGAUCUCAGUGAAUUUGUAUCUAUAUUGACAACCUUUCCUGAAAGAUCAUGUCUGGUAAUAAAGCUCUCCAACAGAGGAUUGAGCAUCA
B7: chr7:75932113:75932114:+_ENSG00000106211_ENST00000248553|hu_hu|hu_hu_hu_mus_False|98_108 (ssRNA)
RNA: GGGAGUUCUACAGUCCGACGAUCCUGCGACCACUCCUCCGGCAGCCGGGGCACCCCGAAAGCUUGAUCGAAGAGGCGGCUGUGUGCAGGGUACCAGUCCCGGAAUGGUUCCCAGCUCGGGCUCCGCAGCAGCGAGAAGGGCACCAACAGAGGAUUGAGCAUCA
B8: chr2:47389785:47389786:-_ENSG00000143933_ENST00000272298|hu_hu|FALSE|FALSE (ssRNA)
RNA: GGGAGUUCUACAGUCCGACGAUCCAGUUCCCAAUUCCUUUGUUGUUAUAGUUCCAUCACCAUCUUUGUCAAAUAGUGAAAAAGCUUCUUUGAAUUCUGCAAUCUGCUCUUCAGUCAGUUGGUCAGCCAUGCUGCAAGCGCUACCAACAGAGGAUUGAGCAUCA
B9: chr11:21042598:21042599:+_ENSMUSG00000020134_ENSMUST00000093290|mus_mus|motif|central (ssRNA)
RNA: GGGAGUUCUACAGUCCGACGAUCGCUGUCAUGAGUAUAUUCAACCACCACCGUCUGGGCUCGAGAUAAAGUAUAUGAUAUGCGGUGCUGGUCCUUGUUGCUUAUUGCCUUGGCAGCCUGAGGAGUACAUGCAAUGUGCACGGUCAACAGAGGAUUGAGCAUCA
B10: chr5:40767622:40767623:-_ENSG00000132356_ENST00000397128|hu_mus|hu_hu_hu_mus_False|38_38 (ssRNA)
RNA: GGGAGUUCUACAGUCCGACGAUCAUCUUUUAUUGCGGCCCUCUUCAUGGGAUCCACCUGCAGCAUAUGUUUCAAAAGGCUGAUUACUGAAGGGUUUAAAUAUUGAGGGGUAUAAAAGAUCCCAUCACAUAUCUUCUUAAAAAGCAACAGAGGAUUGAGCAUCA
B11: 38418874_38420842_594_3pUTR_ENSG00000171475_ENST00000323571|human|control|control (ssRNA)
RNA: GGGAGUUCUACAGUCCGACGAUCUGUAUCAUCCUGAGGACGCCCGCUGGCGGCAGAUACUGGAGGCCUUGGGGCAGCAGCUCGAGAACUGGGGAUUUGCAGGGCUGGCUUACCAGCUAGGUUCUCUGAACCAUCCUUGGCUCCCAACAGAGGAUUGAGCAUCA
B12: chr13:76104392:76104393:-_ENSG00000188243_ENST00000355801|hu_mus|FALSE|FALSE (ssRNA)
RNA: GGGAGUUCUACAGUCCGACGAUCAUACUUGAGAGAUCUGCAGCUGUCAGAGCUCACAGCCAUGCCCAGUUUCCACUGAAAAUCUAUAAGCUGGCCCGUGACCUCCGACUUGGCAUCCAGCACGGGCUCCCUGAACCCAGACUCCAACAGAGGAUUGAGCAUCA
B13: chr4:95690885:95690886:+_ENSMUSG00000028572_ENSMUST00000156910|mus_mus|mus_mus_mus_hu_False|18_78 (ssRNA)
RNA: GGGAGUUCUACAGUCCGACGAUCUUUAGAAAAUGUUAAAUACCAUGCUAAAAUAUUGUAAUUUUAAUAUUUUAUUUUACCAGAAGUCACAGGCAAGCAGACACUACAAGAAUAUAUAAAUACAAACCUCAACAAUAUAACUGUCAACAGAGGAUUGAGCAUCA
B14: chr7:138035701:138035702:+_ENSMUSG00000040268_ENSMUST00000120441|mus_mus|FALSE|FALSE (ssRNA)
RNA: GGGAGUUCUACAGUCCGACGAUCUCCUGCAUUCAUAACAAAACAAAACUCUGCCUUUGGCCUUAACUUAGUUGCAUCGCUAACCUUUGAAAUGUAGGUAAGUUUAAUGGCUCCAACCCGUGACGAUCCUGAAGGCAGGUUCUGCAACAGAGGAUUGAGCAUCA
B15: chr16:20552630:20552631:+_ENSMUSG00000003234_ENSMUST00000003319|mus_mus|FALSE|FALSE (ssRNA)
RNA: GGGAGUUCUACAGUCCGACGAUCCAGUUUACUCUGCACUUGAGAGGCUCUGUUUGCAUUGUAUCGAAAACGGUCGAUGAAAACCUGGAUGUGUUGGCGAUACUGCUGCUGGGCCUCAUACUCGCGCUGCUGGUUGAGAAGGCGCAACAGAGGAUUGAGCAUCA
B16: chr12:39687257:39687258:-_ENSG00000139116_ENST00000551264|hu_hu|motif|central (ssRNA)
RNA: GGGAGUUCUACAGUCCGACGAUCAAAAUCCAGUCAACAACUUUUAAAAAUUCAUACAGGCACAACACAAGAUAGUCUCUCGGUACAAUCUACCUAUUUACAUAGCUUUUCCCACCACAGAUGAUAAUAGCUCUCAUCAUAGCUCAACAGAGGAUUGAGCAUCA
B17: 122075633_122075753_1595_3pUTR_ENSMUSG00000038145_ENSMUST00000120173|mouse|control|control (ssRNA)
RNA: GGGAGUUCUACAGUCCGACGAUCGCCCUCCUCGAAGAUCUGGUUGAGCACUGGGGCACUCUUGCGAGACGUCAGGCGAUUGGUGACCGAUGGCUUCCGGCGCAGCACCACCUGCGUGGACAGGGACACAGGCUUCUUGUCCUCCAACAGAGGAUUGAGCAUCA
B18: chr3:10015032:10015033:+_ENSMUSG00000027533_ENSMUST00000029046|mus_mus|mus_mus_mus_hu_True|68_68 (ssRNA)
RNA: GGGAGUUCUACAGUCCGACGAUCGUUUUUACCAUCACAAGUGAUGAUACAAUCUGGCUUGGCCAUUGCAGCCAUCUUUCGCAAAGCUAUUCCCACUCCUAGCUCCUUCAUGUAUUCAUCAAAGCCUUUGCUGUCCACCAGGCGCAACAGAGGAUUGAGCAUCA
B19: chr3:160150142:160150143:+_ENSG00000113810_ENST00000344722|hu_mus|motif|central (ssRNA)
RNA: GGGAGUUCUACAGUCCGACGAUCAAAACCAGCCAUAAAUUCAUUCAGCCUUUGUUUUCGAAGAUCUUCAUAUGCUUGUCGGAAAUUAUCUCUUUCAGAAGUAAUUUUGUCCAGUUCGGCUACUCUUUGCAAAUAUAAAUCUUCCAACAGAGGAUUGAGCAUCA
B20: chr13:115030651:115030652:+_ENSG00000130177_ENST00000356221|hu_mus|FALSE|FALSE (ssRNA)
RNA: GGGAGUUCUACAGUCCGACGAUCGAUGUACAUUUCAAUGCAGUGACCAAGCAUUGUAACAGAAAAUGUGUCGUCUCGCCUGAGACCAAGAGCUGUGUGGAAAUAGUCCACAGCGUUUUCAAAGUUGCCCAUCAGACUGUGGAUCAACAGAGGAUUGAGCAUCA
B21: chr12:32871593:32871594:+_ENSG00000087470_ENST00000452533|hu_hu|motif|central (ssRNA)
RNA: GGGAGUUCUACAGUCCGACGAUCCAAUACAUCCAUGGCAUCAGUACCCGCAUCCAUGAGAUCAAGUUUAGUGAUUACAGCGGGGGUUCUGCGACCAUCUGGAUCUACCUCUCUUGAAAUUUUAAGUGCCUCUGAUGUUGCCAUCAACAGAGGAUUGAGCAUCA
B22: chr12:53618122:53618123:+_ENSMUSG00000035133_ENSMUST00000110725|mus_hu|FALSE|FALSE (ssRNA)
RNA: GGGAGUUCUACAGUCCGACGAUCUCUUGUUCCCUCUAAGUUGAUGUAUUCUUCAUAAUCAGGAUGAUUUUUUAAUUUAUUACUAACAGUUUUCCAAGUUGCAUGAUAAUCUCUCACAGUCUGCACAAGUUUUUCAAACUUAUCCAACAGAGGAUUGAGCAUCA

Some of the results follow.

The target of the assay is T1, UNK ZnF1-3. Nature of the assay: nsRBNS (natural sequence RNA bind-n-seq); RBNS binding buffer (assumed for nsRBNS): 25 mM Tris pH 7.5, 150 mM KCl, 3 mM MgCl2, 0.01% Triton X-100, 500 ug/ml BSA, 20 U/ml SUPERase-In, 4 C; UNK is unkempt and MSI1 is Musashi-1; names of the RNAs are library labels; protein concentration not given here; high values mean tight binding.
The molecule B1 came in with a binding signal of 0.952 enrichment R.
On to B2, for which the binding signal was found to be 1.18 enrichment R.
Then B3, with 0.664 enrichment R; and B4, with 0.961 enrichment R.
Then B5, with 1.28 enrichment R; and B6, with 1.6 enrichment R; and B7, with 1.07 enrichment R.
Then B8, with 0.9 enrichment R.
The molecule B9 showed a binding signal of 0.582 enrichment R.
In turn, B10 had a binding signal of 1.38 enrichment R.
Then B11, with 0.835 enrichment R; and B12, with 0.293 enrichment R.
Under B13 stands 2.16 enrichment R; under B14, 0.632 enrichment R.
Under B15 stands 0.712 enrichment R; under B16, 1.94 enrichment R.
B17 yielded a binding signal of 1.21 enrichment R.
Then B18, with 0.806 enrichment R; and B19, with 0.558 enrichment R; and B20, with 0.955 enrichment R.
Then B21, with 1.38 enrichment R; and B22, with 0.754 enrichment R.
